Measured values as given in the RNAGym collection of RNA variant scans (doi:10.7554/elife.90254).
Read counts are not given, so values of variants with three or more changes are uncertain.

B1: OR4K15 (parent)
chain: GUUAACGGUCAUAGGCCAUGGAAACUAGGAGCACCAUUUCGCUGCCAGUGAAGAAAUGAACAAAGAAAAUCUGGGCCAGGCAGGCAUCAAAAGAAAUAGUCUUGCGCUCAACCAGAAAGUCUGUAAUCAUUUUAAGGGUA

Variants of: B1
Experiment: self-cleavage, relative activity (ratio to wild type); higher = more cleavage; in vitro, sequencing; the parent is a self-cleaving ribozyme

Row | Variant | self-cleavage
1 | A18G A55G A116G U130C | 0.97
2 | G15U A63G A66G | 1.5
3 | C16U A23G A60G A118G U131C | 0.4
4 | A18G U49C A56G A89G A98G U108C A110G G137U | 0.01
5 | A18U A55G A56G A69G A94G | 1.01
6 | C17U A23G G41U U57C G137U | 1.43
7 | U19A A24G A54G A64U A68G U130C | 0.81
8 | A18U A23G G44A C109A | 0.51
9 | A18G A33U A66G A94U A111G A116G | 0.05
10 | C16A A30G A52G A96G | 0.84
11 | U19A A54G A55G A63G U100C | 2.07
12 | C17U U39C A51U A55G A92U | 1.11
13 | A18G A27G A33G A98G | 1.94
14 | A18C G80U A94G U130C | 0.14
15 | U19A A59U A90G | 1.09
16 | A18C A55G A63G | 0.82
17 | C17A A23G A110U | 1.11
18 | A18G A64G A86G A89G | 0.94
19 | A18G G41A A55G U57C | 1.61
20 | U19A A52U A111U | 0.1
21 | A18G U38A A91U | 1.12
22 | A18G U57A A92G U122C | 0.58
23 | A18U A51G A56G | 1.06
24 | A18G U43A A51G A56G A64U A69U | 1.02

Row | Variant | self-cleavage
25 | A18U U97C G104C | 0.02
26 | A18U A51G A55U A89G A92G | 0.65
27 | A18G A22U A60G A68G A69G G104A A117G | 0.11
28 | C17U A111U A114U | 0.02
29 | A18U U19C U26C A36G A56G A66G | 1.07
30 | A18G G48U A51U | 1.65
31 | C16U U39A U108C A134G | 0.03
32 | A18U A33C A52U A82U U87C | 0.19
33 | A18G U19C A59U | 0.77
34 | A18G G41C A111G | 0.04
35 | A18U A51G U57C A68G U108C A116G | 0
36 | A18U U19A G53A | 1.22
37 | C16U A47G A125G | 0.8
38 | A18G A60U A135G | 1.34
39 | C16A A36C A91G | 1.27
40 | A18G G65A A68G | 0.67
41 | C16A A52G A63G A111G | 0.1
42 | A18U A51G A64G | 1.34
43 | A18G A68G U103C U108A | 0.02
44 | A18G U39A A66G | 0.91
45 | A18G A52G U87C A116G | 0.34
46 | G15U A86U A117G U120A | 2.7
47 | A18U A69G U108A | 0.01
48 | C16A A90G G106A | 0.05

Row | Variant | self-cleavage
49 | A18G A60G U87C U131C | 0.66
50 | A18C A59G A118G | 0.4
51 | C17U C40A A51U A55U A63G A69C | 0.6
52 | C16U A117G U120G | 1.52
53 | A18U U103C A111G | 0.04
54 | A18G A78G A90G | 0.27
55 | U19A A82U U120C | 0.07
56 | A18G A24G A52G U57C U102C | 0.66
57 | U19A A24G A47G A60G A95G A98G U131A | 0.94
58 | A18U U37C A47U A66G | 0.84
59 | A18G C40U A51G A63G C76U | 0.09
60 | A18G A94G U132C | 2.47
61 | U19A A22G A64U A117G | 2.23
62 | A18G A51G C85G | 0.4
63 | A18U A63C U131C | 1.92
64 | A18G U39C G73U U127A | 0.39
65 | A18U G50A A56G U122C U131C | 1.14
66 | C17U A22G A59G A92G A126G | 1.24
67 | U19A A59G U127C | 0.9
68 | C16U A22G A66G | 1.95
69 | A18G A52U A56G | 0.93
70 | A18U A54G A68G | 1.18
71 | A18U U19C U39A | 1.66
72 | A18U U57C A126G | 0.38

Row | Variant | self-cleavage
73 | A18G A56G A60G U127C | 0.54
74 | A18G A33G U38C A118U U132C | 0.23
75 | A18G A24G U39C A47G A66G A96U | 1
76 | A18G A62C A66G U122G | 2.48
77 | C16A A54G C77U A111G | 0.02
78 | A18U U70C A117G | 1.18
79 | C16U A23G U39C G74A | 0.45
80 | A18U U43C A47U U49C A64G U72C A126G | 0.1
81 | A18U U38G U57C U87A | 1.14
82 | A18U A66G A95G | 1.4
83 | A18U A82G A129U U133C | 0.21
84 | A18U A52G U108C U131C | 0.02
85 | A18G A67G A78G G99A C101A | 0.1
86 | A18G A68C A96G A134G | 2.13
87 | A18C A23C A52G G99A | 0.49
88 | A18G A56G A82G C109U A117G | 0.14
89 | G15U A62G A78U U100A A110G | 0.04
90 | G15U A22G A67G A91G | 0.3
91 | A18G A55G A67G A69G A91G | 0.74
92 | A18G A22G U57C A91G | 0.32
93 | C17U A56G G123U | 1.7
94 | C17U A22G U38A A69G | 0.76
95 | A18C U38C U120C | 0.39
96 | A18G U49C C76U A118U | 0.02

Row | Variant | self-cleavage
97 | G15U A22G A59G U100C A110G A129U | 0.15
98 | A18G A56G A63G A90G U124C | 1.29
99 | A18U A78G C105A | 0
100 | U19A A22G A140U | 1.25
101 | A18G A56G U124C | 1.39
102 | A18G U57G A66U | 0.7
103 | A18U A52G G53U U131C | 0.98
104 | A18G A30G A69G | 1.7
105 | A18G A23G U38C U39C U43C A89U U132C | 1.1
106 | C16A U87A A94G A129G | 1.04
107 | A18G A96G A111G | 0.01
108 | C17A U39C A82G | 0.47
109 | A18G C42U A89U | 1.1
110 | A18G U49A A67U A98G A140U | 0.53
111 | U19A A27G A36G | 1.23
112 | A18G U38A A110U | 2.47
113 | C17U G44A A55G | 1.32
114 | A18G A66G A86G A92U A96G A111G A117G | 0.01
115 | U19A A47G A63G A117G A129G | 0.97
116 | C16U A36G U72C | 0.21
117 | A18G U19C A82U U120C | 0.13
118 | A18U U43C A51U A55G A62G | 1.2
119 | A18G U108C U122C | 0.01
120 | A18U A90G U108C | 0.01

Row | Variant | self-cleavage
121 | C17U U19G A78G | 0.45
122 | A18G A91G U108G | 0.06
123 | A18G A33G C81U | 0.03
124 | A18U U38C U72A | 0.16
125 | A18G U19C A23G A68G | 0.77
126 | A18G A56G A82G A140G | 0.56
127 | A18G A22U A52C U108C | 0.03
128 | A18G A63G U102A U108A U124C | 0
129 | A18U U102C A111G | 0.01
130 | C16U A54G U102C U139C | 1.3
131 | C16U A23U U43C A62C A67G A78G U120C U127C A140G | 0.17
132 | A18U U38C A55G A60U | 1.61
133 | C16U A55G A67G U139A | 1.49
134 | A18C U57C A69G A94G | 0.75
135 | U19A A23G A51U A67G A118G U122C U139C | 0.75
136 | A18U A63G G123A | 1.25
137 | A18G U39C A59G A78G G80A A94U | 0.24
138 | A18G C88A A116U | 0.53
139 | C17A U19A C40U | 1.59
140 | A18U A67G A94U | 1.64
141 | C16G A91G U132C | 0.4
142 | U19A A22G U108A | 0.06
143 | A18G A66U U87C A89G | 1.58
144 | C16G A62G A126G | 0.57

Row | Variant | self-cleavage
145 | A18G U38A A118G | 1.2
146 | U19A A23G C76U A114G U132C | 0.18
147 | A18G G28U A54G A111G | 0.01
148 | C16U A66G A68G | 1.26
149 | A18U A60G U100C | 1.94
150 | A18U A116G G123A | 0.57
151 | A18G A23G A54G A78U U108A | 0.03
152 | A18U A22G U133C | 1.29
153 | A18U A24G U108A | 0.03
154 | U19A A23G A24C U57C A66U | 1.02
155 | A18G A62G U72C | 0.27
156 | A18G A62U U130C | 0.69
157 | C16U A18G A55G | 0.69
158 | A18U A36G A54G A69U A78U C101A A135G | 0.03
159 | A18G U37C U43G A56G A91G | 0.49
160 | A18G A23U U70C | 0.11
161 | A18G A33G A55G G79U U124A A129G | 0.03
162 | A18U A114U U120C | 0.01
163 | U19A A22G A68G A82G A90G A94G | 0.71
164 | U19A A66G A126G G136A | 2.21
165 | A18G A33G A62G A129G | 1.63
166 | A18U A52G A67G U102G U108C | 0.04
167 | U19A A47G A59U A68G | 0.93
